Results taken from PubChem BioAssay AID902 (National Center for Advancing Translational Sciences (NCATS), 2007).
Out of some 130,000 compounds screened, about 1,900 (1.5%) were called active. The inconclusive results got no clear call from the source; some entries with a clear call stand among them for comparison. The call rests on the fitted dose curve; in most records, active means well fitted cell-killing curve with a large enough effect; inconclusive means small, poorly fitted or top-dose-only effect; inactive means no such curve, though single readings can be large or run the other way. Where the call is inconclusive, the potency comes from a doubtful curve fit.

experiment: qHTS Screen for Compounds that Selectively Target Cancer Cells with p53 Mutations: Cytotoxicity of p53ts Cells at the Nonpermissive Temperature; conditions: H1299-p53A138V viability at 39C, ATP luminescence, 24 h; activity change, negative = cell killing: at 46.1 µM (top of the series); further: nearly all actives have a fitted effect of over 55% in size
On the % scale 0 is the no-effect control and ±100 the full control effect; potency means the concentration at half of the fitted maximal effect; tags describe the fitted curve by direction and shape.

SMILES	activity change, negative = cell killing	Potency
COc1ccc(CN2C(=O)N(c3ccc(C)cc3)C(=O)C2CC(=O)Nc2ccccc2)cc1OC (configuration not stated)	inactive: -15.1%	
COc1ccc(N2CCN(C(=O)c3ccc4c(Cl)c5c(nc4c3)CCCC5)CC2)cc1		inconclusive: 3.16 µM [cytotoxic, full curve, poor fit]
CCOc1ccc(-c2cc(C(=O)NCCc3ccc(Cl)cc3)c3ccccc3n2)cc1		inconclusive: 12.6 µM [cytotoxic, partial curve]
COc1ccccc1C(=O)NC1=NC(c2ccc(Br)cc2)CC(=O)N1 (configuration not stated)		inconclusive: 12.6 µM [cytotoxic, single point]
O=C(CN1C(=O)COc2ccc(S(=O)(=O)N3CCOCC3)cc21)N1CCN(c2ccc(Cl)cc2)CC1	inactive: 4.93%	
CCN(Cc1ccccc1)S(=O)(=O)c1cc(C(=O)NCC2CCCCC2)ccc1OC	inactive: 1.9%	
Cc1ccc(C(=O)c2sc(Nc3ccc(F)cc3)nc2N)c(C)c1		inconclusive: 11.2 µM [cytotoxic, partial curve]
Cc1cc(C(=O)Nc2nnc(-c3ccccc3)s2)no1		inconclusive: 15.8 µM [cytotoxic, single point]
Cc1cccc(C)c1NC(=O)Cn1c(=O)cc(C)c2c(C)nn(-c3cccc(Cl)c3C)c21	inactive: -20.7%	
Cc1ccc(-n2ncc3c(N4CCCCC4)ncnc32)cc1		active: 1.58 µM
O=C(CN1CCN(C2CCCCC2)C(=O)C1=O)Nc1ccc(Cl)cc1	inactive: 11.3%	
O=C1C=C(NCCc2cc(Br)c(O)c(Br)c2)C(=O)c2ncccc21		inconclusive: 3.16 µM [cytotoxic, single point]
COC(=O)Cc1c(C)c2ccc(OCC(C)=O)c(C)c2oc1=O		inconclusive: 12.6 µM [cytotoxic, single point]
CCn1nnnc1-c1ccc(OC)c(S(=O)(=O)NCc2ccccc2)c1	inactive: 8.72%	
CC(C)CN(CC(C)C)S(=O)(=O)c1ccc(C(=O)Nc2sc3c(c2C(N)=O)CCN(C(C)C)C3)cc1		inconclusive: 0.0079 µM [cytotoxic, full curve, poor fit]
O=C(Nc1cccc(Cl)c1)c1ccncc1	inactive: 2.57%	
COc1cc(N=c2c([N+](=O)[O-])nn(-c3ccc4c(c3)OCCO4)n2O)cc(OC)c1		active: 11.2 µM
COC(=O)c1ccc(C(=O)OC)c(NC(=O)c2cnn3c(C(F)F)cc(-c4ccc(C)cc4)nc23)c1	inactive: 26.5%	
CCOC(=O)c1cccc(NC(=O)CC2C(=O)N(c3ccc(F)cc3)C(=O)N2Cc2cccc(OC)c2)c1 (configuration not stated)	inactive: -18.3%	
CC(C)(C)OC(=O)NCCCCCc1nnc(SCC(=O)Nc2cccc(Cl)c2)o1	inactive: -23.4%	
COc1ccc(CCC(=O)NC2CC(=O)N(c3ccccc3)C2)cc1 (configuration not stated)	inactive: 26.5%	
Cc1ccc2[nH]c(CSc3nnc(NC(=O)COc4ccc(F)cc4)s3)cc(=O)c2c1		inconclusive: 31.6 µM [cytotoxic, single point]
COc1ccc(-c2cc(C)no2)cc1S(=O)(=O)N1CCOc2ccc(Cl)cc21		inconclusive: 20 µM [cytotoxic, partial curve]
COc1ccc(Nc2cc(C(=O)NCCCN(C)C3CCCCC3)c3ccccc3n2)c(OC)c1		inconclusive: 12.6 µM [cytotoxic, single point]

SMILES	activity change, negative = cell killing	Potency
O=C(C(c1ccccc1)c1ccccc1)N1CCN(CCN2C(=O)c3cccc4cccc(c34)C2=O)CC1		inconclusive: 22.4 µM [cytotoxic, single point]
O=C(CN1N=C(c2ccccc2)CCC1=O)NCc1ccc(F)cc1Cl		inconclusive: 5.01 µM [cytotoxic, partial curve, poor fit]
CCc1cc2c(cc3c(=O)n(CC(=O)NCCc4ccccc4)ncn32)s1		inconclusive: 12.6 µM [cytotoxic, single point]
CCOc1ccc(NC(=O)Cn2nnc(C(=O)NCCc3ccccc3)c2N)cc1		inconclusive: 31.6 µM [cytotoxic, single point]
Cc1nc(SCC(=O)NCc2ccco2)c2c(C)c(C)sc2n1	inactive: 3.3%	
O=C(CSc1nnc(-c2ccccc2F)o1)Nc1ccccc1Cl		active: 12.6 µM
CC(C)c1ccccc1S(=O)(=O)c1cc(N)c2ncccc2c1[N+](=O)[O-]		active: 3.16 µM
Cc1ccc(S(=O)(=O)c2nc(-c3cccs3)oc2SC(C)C)cc1		inconclusive: 3.98 µM [cytotoxic, single point]
O=C(CSc1c2c(nc3cc(Cl)ccc13)CCCC2)N1CCN(c2ccccc2F)CC1		inconclusive: 10 µM [cytotoxic, partial curve]
COc1ccc2c(c1)nc1n2CN(CC2CCCO2)CN1Cc1ccccc1 (configuration not stated)		inconclusive: 15.8 µM [cytotoxic, single point]
Cc1cccc(CNC(=O)c2ccc(C)c(-n3c(C)nc4cccnc43)c2)c1	inactive: -8.34%	
Cc1cccc(-c2nc(CN3CCCC(C(=O)NC4CCCCCC4)C3)c(C)o2)c1 (configuration not stated)	inactive: -24.5%	
COCCCNC(=O)c1cnn(-c2ccc(F)cc2F)c1C1CCNCC1		inconclusive: 0.631 µM [cytotoxic, partial curve]
Nc1ccc2nc(-c3ccc(O)cc3)sc2c1		active: 0.631 µM
Cc1ccc2scc(N3CCCCC3)c(=O)c2c1		active: 15.8 µM
Cc1ccc(C)c(Nc2cc(C(=O)NCCCN(C)C3CCCCC3)c3ccccc3n2)c1		inconclusive: 15.8 µM [cytotoxic, single point]
CC(=O)N1CCC2(CC1)OC(=O)C(C)=C2C(=O)NCc1cccc(Cl)c1	inactive: 6.35%	
Cc1sc(NC(=O)c2ccc(Cl)s2)c(C(N)=O)c1C		inconclusive: 20 µM [cytotoxic, single point]
Cc1ccc(C(=O)/C=C/Nc2ccccc2C(N)=O)o1		active: 12.6 µM
Cc1cc(N)n(-c2ncnc3scc(-c4ccc(Cl)cc4)c23)n1		inconclusive: 35.5 µM [cytotoxic, single point]
COc1ccc(C(=O)N2CCC3(CCCN(C(c4ccccc4)c4ccccc4)C3)CC2)cc1		inconclusive: 15.8 µM [cytotoxic, single point]
CN(C)c1ncc2nc(-c3ccc(Cl)cc3)c(=O)n(CCC#N)c2n1	inactive: -9.95%	
COc1ccc(NC(=O)Cn2c(=O)n(Cc3ccccc3)c(=O)c3oc4ccccc4c32)cc1Cl		inconclusive: 10 µM [cytotoxic, partial curve]
Cc1ccc(C)c(-n2cc(-c3ccccc3)nc2SCC(=O)Nc2ccccc2)c1	inactive: -14.3%	

SMILES	activity change, negative = cell killing	Potency
O=C(NCCCN1CCN(c2ccccc2F)CC1)c1cc2c(Cl)nc3ccccc3c2s1		inconclusive: 5.01 µM [cytotoxic, single point]
Cc1ccc(C(=O)Nc2ccccc2C(=O)O)cc1S(=O)(=O)N1CCCCCC1		active: 3.98 µM
COC(=O)C(Cc1c[nH]c2ccccc12)NC(C)=O (configuration not stated)	inactive: 10.2%	
Cc1ccc2[nH]c(C(=O)Nc3ccccc3)cc2c1		inconclusive: 31.6 µM [cytotoxic, single point]
COc1ccc(-c2[nH]c(-c3ccccc3)nc2SCC(=O)Nc2ccc3c(c2)OCCO3)cc1		inconclusive: 31.6 µM [cytotoxic, single point]
Cc1ccc2nc(NC(=O)CN(C)S(=O)(=O)c3ccc(Br)s3)sc2c1	inactive: 37%	
O=C(CSc1nnc(-c2ccc(Cl)cc2)o1)N1CCN(c2ccccc2)CC1	inactive: -7.97%	
Cc1ccc2c(c1)c(=O)c(C(=O)c1ccc3c(c1)OCO3)cn2Cc1cccc(F)c1		inconclusive: 31.6 µM [cytotoxic, single point]
Cc1ccccc1-n1c(C)cc(/C=C2\NC(=O)NC2=O)c1C		active: 8.91 µM
CCCCOc1ccc(CNC(=O)c2ccc(-c3nc(CN4CCc5ccccc54)c(C)o3)cc2)cc1		inconclusive: 0.0501 µM [cytotoxic, full curve, poor fit]
Cc1ccc2nc3ccc(N4CCN(C)CC4)nn3c(=O)c2c1		inconclusive: 3.98 µM [cytotoxic, partial curve]
CCOC(=O)c1[nH]c2ccc(OC)cc2c1NC(=O)c1nonc1C	inactive: 10.7%	
Cc1ccc(-n2nc3c(N4CCC(C(=O)NC(C)c5ccccc5)CC4)nnc(C)c3c2C)cc1 (configuration not stated)		active: 15.8 µM
COc1ccc(-c2nsc3c(N4CCCC4)ncnc23)cc1		inconclusive: 1.58 µM [cytotoxic, full curve]
CN(C)c1ccc(-c2nc(NC3CCNCC3)c3ccccc3n2)cc1		active: 10 µM
Cc1nc2sc(-c3ccccc3)cc2c(=O)n1-n1cccc1		inconclusive: 12.6 µM [cytotoxic, partial curve]
Cc1oc2ncn(CC(C)C)c(=O)c2c1C(=O)NCCCN1CCC(C)CC1	inactive: 7.74%	
O=C(Nc1cccc(NC(=O)c2nccc3ccccc23)c1)c1ccco1		inconclusive: 12.6 µM [cytotoxic, partial curve]
c1ccc(-c2cccc(N3CC4(CCNCC4)C3)c2)cc1		inconclusive: 15.8 µM [cytotoxic, single point]
O=C(COC(=O)c1cccs1)c1ccc2ccccc2c1	inactive: -2.08%	
Cc1ccc(Cl)cc1N1CCN(C(=O)CCCCCn2c(=O)[nH]c3ccccc3c2=O)CC1		inconclusive: 31.6 µM [cytotoxic, single point]
COc1ccc(/C=C/C(=O)Nc2ccc(Cl)c(Cl)c2)cc1		inconclusive: 12.6 µM [cytotoxic, single point]
CCCNC(=O)c1cc(-c2ccc(O)cc2)on1		inconclusive: 10 µM [cytotoxic, partial curve]
Cc1cnc(=O)[nH]c1SCC(=O)Nc1nc2ccccc2s1		inconclusive: 10 µM [cytotoxic, partial curve]
